Among the data in PubChem BioAssay AID2202238 (Ras Initiative Chemistry Research Team, Frederick National …, 2025) are percent labeling values, retold here.

The assay has as its target GTPase KRas (Homo sapiens) (UniProt P01116). The experiment in a line: Covalent labelling of cysteine mutants by fragments, read by mass spectrometry (AID 2202238). On the set-up: protein at 5 µM with 500 µM competing thiol for 1.5 h. The following applies: KRAS G12D cysteine mutants, disulfide tethering, MALDI-TOF labeling, stronger effect = higher value, fragment at 500 µM.
The mark [1] stands for this setting: measured here: G60C mutant labeling.
Setting [2] is: measured here: G75C mutant labeling.
The mark [3] stands for this setting: measured here: H94C mutant labeling.
[4] abbreviates: measured here: I36C mutant labeling.
Setting [5] is: measured here: L120C mutant labeling.
Where [6] appears, read: measured here: M67C mutant labeling.
Where [7] appears, read: measured here: M72C mutant labeling.
[8] abbreviates: measured here: N26C mutant labeling.
Where [9] appears, read: measured here: N86C mutant labeling.
Where [10] appears, read: measured here: P121C mutant labeling.
The mark [11] stands for this setting: measured here: S122C mutant labeling.
Where [12] appears, read: measured here: S136C mutant labeling.

This is one part of the list. The main result of the screen is listed elsewhere. These columns were measured beside it and carry no call.

Chain of UniProt P01116 (P01116 whole entry, looked up, the tested form may be a part): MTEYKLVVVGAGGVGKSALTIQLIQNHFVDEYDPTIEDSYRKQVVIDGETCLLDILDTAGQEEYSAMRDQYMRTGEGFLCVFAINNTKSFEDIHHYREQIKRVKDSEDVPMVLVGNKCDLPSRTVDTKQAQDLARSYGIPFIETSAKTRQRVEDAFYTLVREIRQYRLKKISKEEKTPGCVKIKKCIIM

As to `Cc1cc(C)c(C(=O)NCCS)c(C)c1Br`, the percent labeling by setting is: under setting [1], 51.3%; under setting [2], 15.8%; under setting [3], 20.3%; under setting [4], 15.4%; under setting [5], 17.6%; under setting [6], 15.6%. Further, the percent labeling runs as follows: under setting [7], 28.4%; under setting [8], 34.9%; under setting [9], 7.6%; under setting [10], 26.1%; under setting [11], 11.9%; under setting [12], 22%.

With `CC(C)N(C)c1ccc(C(=O)NCCS)cc1`, the percent labeling runs as follows: under setting [1], 26.5%; under setting [2], 20.5%; under setting [3], 14.4%; under setting [4], 13.5%; under setting [5], 14.8%; under setting [6], 14.9%. In addition, the percent labeling by setting is: under setting [7], 68.2%; under setting [8], 40.7%; under setting [9], 24%; under setting [10], 17.9%; under setting [11], 11%; under setting [12], 25.8%.

Turning to `Cn1cc(C(=O)NCCS)c(-c2cccnc2)n1`, the percent labeling runs as follows: under setting [1], 17.7%; under setting [2], 9.2%; under setting [3], 28.6%; under setting [4], 27.5%; under setting [5], 20.1%; under setting [6], 28.3%. Besides, the percent labeling was 16.6% under setting [7]; 32.1% under setting [8]; 16.9% under setting [9]; 23% under setting [10]; 19.5% under setting [11]; 43.9% under setting [12].

For `Cc1nc(CCC(=O)NCCS)oc1-c1ccccc1`, the percent labeling runs as follows: under setting [1], 36.2%; under setting [2], 18%; under setting [3], 35.5%; under setting [4], 20.6%; under setting [5], 27.1%; under setting [6], 34%. Moreover, the percent labeling by setting is: under setting [7], 35.2%; under setting [8], 34.4%; under setting [9], 18.3%; under setting [10], 21.7%; under setting [11], 19.1%; under setting [12], 31.6%.

As for `O=C(NCCS)C1CCN(C(=O)c2ccc3ccccc3c2)CC1`, the percent labeling is, setting by setting: under setting [1], 41.9%; under setting [2], 9.1%; under setting [3], 19.8%; under setting [4], 20%; under setting [5], 10.7%; under setting [6], 52.3%. Moreover, the percent labeling came to 12.8% under setting [7]; 23.4% under setting [8]; 13.2% under setting [9]; 12.3% under setting [10]; 3.5% under setting [11]; 16% under setting [12].

As for `O=C(NCCS)c1cc(-n2ccnn2)ccc1F`, the percent labeling reads like this: under setting [1], 38.1%; under setting [2], 23.2%; under setting [3], 37%; under setting [4], 29.8%; under setting [5], 42%; under setting [6], 36%. In addition, the percent labeling by setting is: under setting [7], 41.8%; under setting [8], 46.3%; under setting [9], 30.3%; under setting [10], 34.3%; under setting [11], 31.9%; under setting [12], 55%.

For the compound `O=C(CCS)NC1CC2(CCC2)C12CCC2` (configuration not stated), the percent labeling was 22.5% under setting [2]; 33.8% under setting [3]; 29.9% under setting [4]; 15.1% under setting [5]; 23.1% under setting [6]; 47.7% under setting [7]. The percent labeling is, setting by setting: under setting [9], 25.4%; under setting [10], 28%; under setting [11], 22.3%; under setting [12], 40.1%.

Turning to `O=C(NC1CCN(C(=O)CCS)CC1)C1CC1`, the percent labeling runs as follows: under setting [2], 10.2%; under setting [3], 24.4%; under setting [4], 28.6%; under setting [5], 26.7%; under setting [6], 27.9%; under setting [7], 13.4%. Also, the percent labeling by setting is: under setting [9], 21.2%; under setting [10], 31.3%; under setting [11], 38.8%; under setting [12], 50.1%.

On to `Cc1cc(C)c(N2CC(C(=O)NCCS)CC2=O)c(C)c1` (configuration not stated), for which the percent labeling under setting [1] amounted to 43.4%; the percent labeling under setting [2] is 24.3%; the percent labeling under setting [3] was 43.3%; the percent labeling under setting [4] is 30.3%; the percent labeling under setting [5] is 22.7%; the percent labeling under setting [6] is 50.5%. In addition, the percent labeling was 35.5% under setting [7]; 53.4% under setting [8]; 26.1% under setting [9]; 40% under setting [10]; 33.5% under setting [11]; 54.6% under setting [12].

As for `O=C(CCS)NCC1=CS(=O)(=O)c2ccccc21`, the percent labeling under setting [2] is 9%; the percent labeling under setting [3] was found to be 22.1%; the percent labeling under setting [4] was 24.4%; the percent labeling under setting [5] was found to be 18.1%; the percent labeling under setting [6] is 18.4%; the percent labeling under setting [7] was 39.4%. Moreover, the percent labeling was 9% under setting [9], 20.4% under setting [10], 18% under setting [11] and 29.8% under setting [12].

As for `O=C(CCS)NC1CCN(CCc2ccccc2)CC1`, the percent labeling is 14.6% under setting [2]; 41.3% under setting [3]; 58.7% under setting [4]; 35.3% under setting [5]; 55.3% under setting [6]; 32.5% under setting [7]. Further, the percent labeling reads like this: under setting [9], 32.1%; under setting [10], 39.5%; under setting [11], 37.5%; under setting [12], 62.7%.

`O=C(CCc1cccc(Br)c1F)NCCS`: the percent labeling was found to be 47.9% under setting [1]; 19.9% under setting [2]; 29.7% under setting [3]; 25.9% under setting [4]; 28.7% under setting [5]; 31.5% under setting [6]. The percent labeling came out at 50.6% under setting [7]; 34.6% under setting [8]; 17.2% under setting [9]; 27.6% under setting [10]; 20.7% under setting [11]; 37.5% under setting [12].

For `O=C(NCCS)C1(c2cccc(Cl)c2)CCCC1`, the percent labeling by setting is: under setting [1], 42.7%; under setting [2], 17.6%; under setting [3], 16.8%; under setting [4], 13.3%; under setting [5], 25.2%; under setting [6], 16.5%. For the same compound, the percent labeling turned out to be 33.7% under setting [7]; 26.3% under setting [8]; 14.9% under setting [9]; 16% under setting [10]; 14.3% under setting [11]; 22.1% under setting [12].

For the compound `CC(C)(C(=O)NCCS)c1csc(-c2c(F)cccc2F)n1`, the percent labeling by setting is: under setting [1], 34%; under setting [2], 14.5%; under setting [3], 24.3%; under setting [4], 11.2%; under setting [5], 21%; under setting [6], 18.9%. Further, the percent labeling worked out at 23.9% under setting [7]; 30.5% under setting [8]; 11% under setting [9]; 15.3% under setting [10]; 12.5% under setting [11]; 25.6% under setting [12].

On to `CN(CCCC(=O)NCCS)C(=O)c1ccncc1`, for which the percent labeling was 24.8% under setting [1]; 9.1% under setting [2]; 31% under setting [3]; 23.7% under setting [4]; 32.7% under setting [5]; 32.2% under setting [6]. Besides, the percent labeling stood at 10.2% under setting [7]; 34.9% under setting [8]; 24.5% under setting [9]; 32.8% under setting [10]; 27.5% under setting [11]; 38.1% under setting [12].

Take `O=C(NCCS)C1CCc2nc(C(F)(F)F)cn2C1` (configuration not stated): the percent labeling runs as follows: under setting [1], 34.5%; under setting [2], 12.4%; under setting [3], 36%; under setting [4], 35%; under setting [5], 33.8%; under setting [6], 35.1%. For the same compound, the percent labeling reads like this: under setting [7], 14.3%; under setting [8], 40.6%; under setting [9], 27.1%; under setting [10], 33.4%; under setting [11], 28.8%; under setting [12], 40.6%.

With `Cc1nc(-c2cccs2)sc1C(=O)NCCS`, the percent labeling runs as follows: under setting [1], 23%; under setting [2], 16.1%; under setting [3], 16%; under setting [4], 11.7%; under setting [5], 18.6%; under setting [6], 15.2%. Besides, the percent labeling is 51.4% under setting [7]; 31.8% under setting [8]; 15% under setting [9]; 20.9% under setting [10]; 14.3% under setting [11]; 17.9% under setting [12].

Regarding `O=C(CCS)NC1(c2nccs2)CCCC1`, the percent labeling reads like this: under setting [2], 11.6%; under setting [3], 40.3%; under setting [4], 37.4%; under setting [5], 35.9%; under setting [6], 31.4%; under setting [7], 23.8%. Moreover, the percent labeling stood at 27% under setting [9], 36.1% under setting [10], 37.6% under setting [11] and 54.4% under setting [12].

As for `O=C(CCS)Nc1cc(-c2ccccc2)nn1Cc1ccccc1`, the percent labeling by setting is: under setting [2], 11.8%; under setting [3], 11.6%; under setting [4], 11.5%; under setting [5], 10.8%; under setting [6], 9.6%; under setting [7], 39%. In addition, the percent labeling is 15.8% under setting [9], 11.5% under setting [10], 6.2% under setting [11] and 13.3% under setting [12].

As for `O=C(Cn1c(-c2ccccc2)cc2ccccc21)NCCS`, the percent labeling runs as follows: under setting [1], 37.4%; under setting [2], 19.1%; under setting [3], 18.7%; under setting [4], 12.9%; under setting [5], 26.4%; under setting [6], 12.2%. This compound yielded a percent labeling under setting [7] of 18.7%; a percent labeling under setting [8] of 18.8%; a percent labeling under setting [9] of 8.1%; a percent labeling under setting [10] of 16.1%; a percent labeling under setting [11] of 7.4%; a percent labeling under setting [12] of 12.7%.

Consider `Cc1nc2c(C(N)=O)ncn2c(C)c1CCC(=O)NCCS`, for which the percent labeling is, setting by setting: under setting [1], 33.4%; under setting [2], 11%; under setting [3], 26.8%; under setting [4], 24.2%; under setting [5], 23%; under setting [6], 26.5%. For the same compound, the percent labeling is 10.7% under setting [7]; 33.3% under setting [8]; 14.7% under setting [9]; 24.4% under setting [10]; 15.9% under setting [11]; 34.9% under setting [12].

For `O=C(NCCS)c1cnc2ccccc2n1`, the percent labeling runs as follows: under setting [2], 24.4%; under setting [3], 24.7%; under setting [4], 17.7%; under setting [5], 15.6%; under setting [6], 19.5%; under setting [7], 48.7%. In addition, the percent labeling was 15.7% under setting [9], 23.9% under setting [10], 22% under setting [11] and 40% under setting [12].

In the case of `O=C(Cn1c(-c2cccc(Cl)c2Cl)nc2ccccc21)NCCS`, the percent labeling is 47.1% under setting [1]; 39.8% under setting [2]; 13.2% under setting [3]; 14.8% under setting [4]; 25.8% under setting [5]; 27.9% under setting [6]. The compound also registered a percent labeling under setting [7] of 41.9%; a percent labeling under setting [8] of 23%; a percent labeling under setting [9] of 10%; a percent labeling under setting [10] of 14.5%; a percent labeling under setting [11] of 5.8%; a percent labeling under setting [12] of 39.8%.
